Assay results published in PubChem BioAssay AID686970 (National Center for Advancing Translational Sciences (NCATS), 2013).
“And” between values parts separate entries of the source, which are not always exact repeats. Identical values can stand only once. About 6,000 (1.7%) of roughly 360,000 compounds were called active. The inconclusive results got no clear call from the source; some entries with a clear call stand among them for comparison. Calls follow the shape of the dose curve; as a rule, active = well fitted cell-killing curve with a large enough effect; inconclusive = small, poorly fitted or top-dose-only effect, or effect the other way; inactive = flat fitted curve, though single readings scatter. Where the call is inconclusive, the potency comes from a doubtful curve fit.
Potency is read from the fitted curve at half-maximal effect; tags tell the direction and shape of the fitted curve.

Test: qHTS for induction of synthetic lethality in tumor cells producing 2HG: qHTS for the HT-1080-NT fibrosarcoma cell line;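 also: NT is the 2HG producing partner of a matched IDH1 knockdown line; nearly all actives have a fitted effect of over 55% in size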;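 as to activity, negative = less viability: 0% = DMSO-treated cells and -100% = media-only wells without cells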
Details: HT-1080-NT fibrosarcoma viability, CellTiter-Glo ATP luminescence, 48 h; activity, negative = less viability: at 46.1 µM (top of the series) unless noted
Summary of the method: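 Viability of the 2HG-overproducing fibrosarcoma line after 48 hours of compound exposure at 37 degrees C was determined by luminescence with CellTiter-Glo, and concentration-effect curves were then fitted and categorized.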
With `Cc1cccc(Cc2c(C)nc3c(C(=O)N4CCN(Cc5ccc6c(c5)OCO6)CC4)cnn3c2C)c1` the Potency was inconclusive: 12.6 µM [cytotoxic, partial curve].
In the case of `CC(C)N1CCN(C(=O)c2ccc(NC(=O)c3ccc(Br)o3)cc2)CC1`, the Potency is reported as inconclusive: 14.6 µM [rising, partial curve].
In the case of `CCOC(=O)C1=CN(Cc2cccc(F)c2)S(=O)(=O)NC1c1ccc(Br)cc1F` (stereo unspecified), the Potency is reported as inconclusive: 18.4 µM [cytotoxic, partial curve].
In the case of `CCNC(=S)N/N=C/c1cc(Br)cc(Br)c1OC`, the Potency is reported as active: 4.47 µM.
With `CCOc1ccc2c(c1)OC(c1ccc(C)cc1)(C(F)(F)F)NC2=O` (stereo unspecified) the Potency was inconclusive: 2.91 µM [cytotoxic, full curve].
In the case of `C/C(=N\NC(=O)CNc1cccc(C(F)(F)F)c1)c1ccc(Br)cc1`, the Potency is reported as inconclusive: 29.1 µM [cytotoxic, single point].
In the case of `CCCCCCCCCCCCCCCC[n+]1ccc(/C=N/O)cc1`, the Potency is reported as active: 20.6 µM.
In the case of `CCCCOc1ccc(S(=O)(=O)Nc2cccnc2)cc1`, the Potency is reported as inconclusive: 17.8 µM [cytotoxic, single point].
For `C=CCn1c(O)c(C2=c3ccccc3=NC2=O)c2ccccc21`, the Potency was active: 23.1 µM.
With `O=S(=O)(Nc1cc(Cl)ccc1-n1cncn1)c1cc(Br)ccc1Br` the Potency was inconclusive: 16.4 µM [cytotoxic, partial curve].
In the case of `OCC1OC(n2ccc3c(NO)ncnc32)C(O)C1O` (stereo unspecified), the Potency is reported as active: 1.64 µM.
With `Cc1ccc(OCCNc2cc(N3CCN(CCO)CC3)ccc2[N+](=O)[O-])cc1C` the Potency was inconclusive: 18.4 µM [cytotoxic, single point].
With `Cc1ccccc1NC(=O)c1onc2c1CCCC2` the Potency was “inactive”.
For `CN(C)c1cc(C(=O)N(C)c2ccccc2)ncn1`, the Potency was inconclusive: 23.1 µM [rising, single point].
With `Oc1ccccc1-c1nc(/C=C/c2ccccc2)nn1-c1ccccc1` the Potency was “inactive”.
In the case of `Cn1c(CC2C(=O)Nc3ccc(Br)cc32)nc2ccccc2c1=O` (stereo unspecified), the activity, negative = less viability is reported as inconclusive: -14% [cytotoxic].
With `CCN(CC)C(=O)COC(=O)c1cc(-c2ccc(OC)cc2)nc2ccccc12` the Potency was inconclusive: 35.5 µM [cytotoxic, single point].
For `COc1ccc(-c2cc(C(F)(F)F)nc(NCc3cccs3)n2)cc1`, the Potency was inconclusive: 29.1 µM [cytotoxic, single point].
In the case of `COC(=O)CSc1nc(-c2ccccc2)nc2ccccc12`, the Potency is reported as “inactive”.
For `C=CCN1C(=O)C(O)(CC(=O)c2ccc(N)cc2)c2ccccc21` (stereo unspecified), the Potency was “inactive”.
With `Cc1ccc(-c2csc(C(O)c3ccc(F)cc3)n2)cc1C` (stereo unspecified) the Potency was inconclusive: 29.1 µM [cytotoxic, single point].
For `Nc1cc(=O)[nH]c(SCC(=O)N2N=C(c3ccc(Cl)cc3)CC2c2ccco2)n1` (stereo unspecified), the Potency was “inactive”.
With `O=C1NC(c2ccccc2)(C(F)(F)F)C(=O)N1Cc1cccnc1` (stereo unspecified) the Potency was “inactive”.
For `O=C(COC(=O)c1ccc[n+]([O-])c1)Nc1ccccc1OC(F)F`, the Potency was “inactive”.
With `C[C@H](NC(=O)c1nc[nH]c1C(=O)NCCCCCN)C(=O)OC(C)(C)C` the Potency was “inactive”.
With `CCOC(=O)NN1C(=O)c2ccccc2NC1c1ccc(OC)c(OC)c1` (stereo unspecified) the Potency was “inactive”.
For `O=CNc1cc(-c2ccoc2)cn2c(-c3ccc(F)cc3)cnc12`, the Potency was “inactive”.
In the case of `O=c1c2ccccc2c(/C=N/c2ncn[nH]2)c(O)n1Cc1ccccc1`, the Potency is reported as inconclusive: 25.9 µM [cytotoxic, single point] and inconclusive: 7.31 µM [cytotoxic, partial curve].
For `COc1cc(/C=N\NC(=O)C(C)(C)O)ccc1OC/C=C/c1ccccc1`, the Potency was “inactive”.
With `CCn1cc(C(=O)NCc2ccco2)c(=O)c2cc(S(=O)(=O)N3CCC(C)CC3)ccc21` the Potency was inconclusive: 29.1 µM [cytotoxic, single point].
With `CCN1C(=O)CC(c2ccccc2)N(C2CCCC2)c2nc(Nc3ccc(C(=O)NC4CCN(C)CC4)cc3OC)ncc21` (stereo unspecified) the Potency was inconclusive: 29.1 µM [cytotoxic, single point].
In the case of `N#CC1=C(N)Oc2cc(N)ccc2C1c1cc(Br)cs1` (stereo unspecified), the Potency is reported as active: 2.06 µM.
For `CCCC1(C(=O)OC)NC(c2ccc(OC)c(OC)c2)C2C(=O)N(c3cccc(C(C)=O)c3)C(=O)C21` (stereo unspecified), the activity, negative = less viability was inconclusive: 30.7%.
For `CC(=O)Nc1ccc(C(=O)Nc2ccc3c(c2)OCCO3)cc1`, the Potency was “inactive”.
In the case of `CC1(C(=O)Nc2cccc3c2CCCC3)CCN1C(=O)C1(c2ccc(Cl)cc2)CC1` (stereo unspecified), the Potency is reported as inconclusive: 29.1 µM [cytotoxic, single point].
For `Cn1c(Cc2cccc3ccccc23)nnc1SCC(=O)N1CCN(c2cccc(Cl)c2)CC1`, the Potency was inconclusive: 23.1 µM [cytotoxic, single point].
In the case of `COC(=O)c1sccc1NC(=O)CSc1ccccc1NC(=O)CNC(C)C`, the activity, negative = less viability is reported as inconclusive: 3.47%.
For `O=C(NCC1CCN(Cc2cccc(Cl)c2)CC1)C1CCCN(c2ncnc3c2nc2n3CCCCC2)C1` (stereo unspecified), the Potency was active: 20.6 µM.
For `CCOC(=O)c1c(-c2ccc(OC)cc2)csc1/N=C/C1C(=O)CCCC1=O`, the Potency was inconclusive: 32.6 µM [cytotoxic, single point].
In the case of `Cn1cnc(S(=O)(=O)N2CCCCC2c2cc(C(=O)NCc3ccc(Cl)c(Cl)c3)no2)c1` (stereo unspecified), the Potency is reported as inconclusive: 32.6 µM [cytotoxic, partial curve].
With `Cc1ccc(C(=O)O/N=C/c2c(N3CCOCC3)n(C)c3ccccc23)cc1` the Potency was active: 3.98 µM.
With `CCc1nc2ccc(C(=O)Nc3cccc(NS(C)(=O)=O)c3)cn2c1N(C)Cc1nccn1C` the Potency was inconclusive: 29.1 µM [rising, single point].
In the case of `CCOc1cc(CNCCCN2CCOCC2)ccc1OCC(=O)Nc1cccc2ccccc12`, the Potency is reported as active: 10 µM.
With `COC(=O)c1c(NC(=O)c2ccccc2)sc(C(=O)c2ccccc2)c1C` the Potency was inconclusive: 29.1 µM [cytotoxic, single point].
In the case of `COc1ccc(-c2nn(-c3ccccc3)cc2/C=C\C(=O)Nc2ccc(C(=O)O)cc2)cc1`, the Potency is reported as inconclusive: 18.4 µM [cytotoxic, partial curve].
For `CCn1c(SCC(=O)c2c[nH]c3ccccc23)nnc1-c1cccs1`, the Potency was inconclusive: 23.1 µM [cytotoxic, partial curve].
In the case of `NC(c1csc(NC(=O)Nc2cccc(C(F)(F)F)c2)n1)C1CCCCC1` (stereo unspecified), the Potency is reported as active: 8.2 µM.
With `O=c1c2c(C(F)(F)F)cc(C(F)(F)F)nc2[nH]n1-c1ccccc1` the Potency was inconclusive: 35.5 µM [cytotoxic, single point].
In the case of `CCOC(=O)c1[nH]c2cc(OC)c(OC)cc2c1NC(=O)c1ccc2c(c1)OCO2`, the Potency is reported as inconclusive: 25.1 µM [cytotoxic, single point].
In the case of `COc1ccccc1-c1oc2ccccc2c1-c1ccc2cc[nH]c2c1`, the Potency is reported as inconclusive: 18.4 µM [cytotoxic, single point].
In the case of `C/C(CCc1ccco1)=N/NC(=O)CCC(=O)Nc1ccc(Br)cc1`, the Potency is reported as inconclusive: 7.31 µM [cytotoxic, partial curve].
With `CCN(CC)c1nc2c(c(=O)[nH]c(=O)n2C)n1Cc1ccccc1Cl` the Potency was “inactive”.
For `CC(=O)Oc1ccc(C2=Cc3ccc(OC(C)=O)cc3OC2C)cc1` (stereo unspecified), the Potency was inconclusive: 3.66 µM [cytotoxic, full curve].
In the case of `CCc1c(C(=O)NNC(=S)NCC(C)C)csc1C`, the Potency is reported as inconclusive: 25.1 µM [cytotoxic, single point].
With `CC(C)CCOP(=O)(c1ccc(N(C)C)cc1)C(O)c1ccc(N(C)C)cc1` (stereo unspecified) the Potency was “inactive”.
For `O=S(=O)(c1ccccc1)N1CCC(O)(CSc2ccccc2)CC1`, the Potency was active: 23.1 µM.
For `COc1ccccc1-n1c(-c2ccccc2)c[nH]c1=S`, the Potency was “inactive”.
For `O=C(C1CCC(CNS(=O)(=O)c2cccs2)CC1)N1CCN(c2ccc(Cl)cc2)CC1` (stereo unspecified), the Potency was inconclusive: 23.1 µM [cytotoxic, single point].
In the case of `CN(C)c1ccc(CNc2ncnc3sccc23)cc1`, the Potency is reported as inconclusive: 14.6 µM [cytotoxic, partial curve].
For `Cc1ccc2c(c1)N(Cc1ccccc1)C(=O)C(C)O2` (stereo unspecified), the Potency was inconclusive: 29.1 µM [rising, single point].
In the case of `COc1ccc(CCNC(=O)Cc2ccccc2)cc1OC`, the Potency is reported as “inactive”.
In the case of `CCCOc1ccc(F)cc1-c1cc(C(=O)NC2CCCCC2)[nH]n1`, the Potency is reported as “inactive”.
With `CCC(c1nnnn1-c1c(C)cccc1C)N1CCN(CC)CC1` (stereo unspecified) the Potency was “inactive”.
In the case of `CN(C)CCCOc1ccc(-c2cc3nc(NCc4cccnc4)n(C)c(=O)c3s2)cn1`, the Potency is reported as inconclusive: 29.1 µM [cytotoxic, single point].
In the case of `CC1=NN(c2ccc(S(=O)(=O)O)cc2Cl)C(=O)C1`, the Potency is reported as inconclusive: 5.17 µM [rising, partial curve].
For `Cc1ccc(C(=O)c2cc([N+](=O)[O-])ccc2N2CCOCC2)c(C)c1`, the Potency was inconclusive: 1.3 µM [cytotoxic, full curve].
For `COc1cc(OC)cc(-c2c(C#Cc3ccsc3)c3cc(-c4ccc(SC)cc4)ccc3n2C)c1`, the Potency was inconclusive: 20.6 µM [rising, single point].
In the case of `O=C(O)c1c2c(nc3ccc(S(=O)(=O)N4CCC(C(=O)NC5CCCCCC5)CC4)cc13)CCCC2`, the Potency is reported as “inactive”.
With `CC(C)CN(C(=O)COC(=O)c1cccnc1Cl)c1c(N)n(Cc2ccccc2)c(=O)[nH]c1=O` the Potency was “inactive”.
With `CC(=O)c1cccc(-c2ccnc3c2CC(C(=O)Nc2cccc(NS(C)(=O)=O)c2)O3)c1` (stereo unspecified) the Potency was inconclusive: 23.1 µM [cytotoxic, partial curve, poor fit].
In the case of `Cc1c(Cc2ccc3c(c2)OCO3)sc(NC(=O)c2cccc3ccccc23)c1C(N)=O`, the Potency is reported as inconclusive: 20.6 µM [cytotoxic, single point].
